# According to the supplement of paper PMC3334620:
# In all, about 33,000 sequences were measured (“E-score (-0.5 to 0.5)”: median about -0.054, highest 2% from about 0.35 on). The list shows a part of the results.
# Biological target: T1, Stb5 (UniProt P38699)
# T1 sequence: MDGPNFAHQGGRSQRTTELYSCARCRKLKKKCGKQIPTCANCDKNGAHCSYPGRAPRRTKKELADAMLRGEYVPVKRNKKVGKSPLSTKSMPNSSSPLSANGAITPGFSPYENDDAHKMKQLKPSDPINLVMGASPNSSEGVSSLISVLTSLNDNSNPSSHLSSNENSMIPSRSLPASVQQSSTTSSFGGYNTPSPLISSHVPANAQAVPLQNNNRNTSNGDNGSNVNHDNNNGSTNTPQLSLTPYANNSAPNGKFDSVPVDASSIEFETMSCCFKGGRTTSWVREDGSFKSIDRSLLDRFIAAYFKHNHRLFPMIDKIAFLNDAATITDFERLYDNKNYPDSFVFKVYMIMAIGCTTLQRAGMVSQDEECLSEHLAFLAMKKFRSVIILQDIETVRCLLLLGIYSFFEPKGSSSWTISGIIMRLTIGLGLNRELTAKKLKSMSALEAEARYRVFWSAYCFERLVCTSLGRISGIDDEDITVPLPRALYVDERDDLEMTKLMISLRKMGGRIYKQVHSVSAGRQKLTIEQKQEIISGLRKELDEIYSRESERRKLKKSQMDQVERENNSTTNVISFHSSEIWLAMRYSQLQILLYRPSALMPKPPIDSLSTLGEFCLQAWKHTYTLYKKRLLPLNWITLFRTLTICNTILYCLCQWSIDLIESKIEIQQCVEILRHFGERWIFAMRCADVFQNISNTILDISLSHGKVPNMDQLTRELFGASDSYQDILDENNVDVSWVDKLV
# Test: PBM E-score (8-mer binding enrichment) (E-score (-0.5 to 0.5)); higher = stronger / more preferred TF binding; most listed sequences are background and not binding sites
# Conditions: protein concentration: 200 nM; construct: GST-full length
# How it was run: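 Yeast transcription factors, full-length or as DNA-binding domains, were expressed with a GST tag using PURExpress in vitro transcription/translation. At about 100-200 nM they were applied to universal all-10-mer Agilent arrays, double-stranded by primer extension on fresh or once-stripped slides. Fluorescent anti-GST detected bound protein, and masliner normalised the scans. E-scores for ungapped eight-base words, pooled with reverse complements, came from the Universal PBM Analysis Suite.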
row,Sequence,PBM E-score
1,GACATGAC,-0.0655
2,CGACGGCA,0.299
3,AAGCTCTA,-0.16
4,ATCACGGG,0.125
5,CGCTGGAA,-0.0318
6,GGAAGTAA,0.203
7,CATTCCCC,0.15
8,CGGTTTTA,0.41
9,ACCATGTC,0.0446
10,CTGCTATA,0.0793
11,GCGTGACA,-0.0462
12,CCTAAGCA,-0.137
13,GCGCTGCC,-0.0367
14,GAAATGCA,-0.0931
15,CAATCGAG,-0.21
16,AACTCGCT,-0.0283
17,TACGATAA,-0.14
18,CAAATTTC,-0.303
19,GACCACTC,-0.174
20,AGCTCGCA,-0.16
21,AGCATCAT,-0.328
22,ACATACCG,0.28

row,Sequence,PBM E-score
1,CTCGCGAA,-0.165
2,GCCTGATA,-0.0578
3,AAAGGAAG,0.0433
4,GTACCTCA,-0.226
5,CTAGGCAC,-0.109
6,GTGGAGGA,-0.0194
7,CTGACTGC,-0.21
8,GGAAATTA,0.0778
9,CTCAGTCA,-0.3
10,AGCTGGTA,-0.195
11,GACACGCC,0.0789
12,TACTCAGA,-0.0731
13,ACATCGAT,-0.171
14,ATTAGAGC,0.0887
15,ACTAAGGA,-0.19
16,CGGATAGC,-0.0155
17,TCGCCCGA,-0.00426
18,GATTTGAA,-0.132
19,CCGTCAAA,0.237
20,ACAGTCTG,-0.226
21,GAGAGCCC,-0.0648
22,GAGCCAGA,-0.181

row,Sequence,PBM E-score
1,GTAACGAC,0.132
2,CATTCTTC,-0.247
3,TACCAAAA,-0.154
4,AGATACGA,-0.144
5,ATGGGCTG,-0.309
6,CACTAGCA,-0.0502
7,CGAATGGC,0.0449
8,TCGGCCAA,0.00822
9,CAGGGACG,-0.127
10,TCGTGCCA,-0.205
11,CGAACCGA,0.137
12,AGTGGCGG,0.292
13,TAGCTCCA,0.101
14,CAGCCCAA,-0.168
15,GGCCACGA,0.111
16,CCCACTGC,-0.0061
17,CCACTTTC,-0.205
18,AATCACCA,-0.0307
19,ACAGGCCC,-0.175
20,AACTAAAT,-0.177
21,GTGAGCCA,-0.193
22,CAATGGAA,0.0674

row,Sequence,PBM E-score
1,ATAAATAA,0.109
2,ATAAGTAA,0.0773
3,CCTCTTCA,-0.0873
4,CCGTGAAA,-0.00057
5,CTTTACTA,0.0783
6,CGGGATCC,0.195
7,ACGGTTTG,0.0489
8,AACTTGCA,-0.228
9,GCCCCTGA,-0.155
10,AGCGTGGG,-0.271
11,AATTAGCC,-0.0645
12,AGATTATG,0.0753
13,CCATCCCC,0.0121
14,ACATCATA,-0.0465
15,CACATGCG,-0.0615
16,CTCTTAGA,0.0208
17,AGAAAAAC,0.00925
18,TCGTCACA,-0.138
19,ATTACGAG,-0.196
20,CCGGTCCC,0.308
